From the supplement of paper PMC9446081
Screen size: about 39,000 compounds; about 220 (0.56%) showed activity. This is one part of the list.

These compounds were tested on Escherichia coli K-12 BW25113 (assay: relative growth (OD600 normalised to plate interquartile mean) (fraction); higher = less growth inhibition, active = 0.2 or less). Settings: 50 µM; LB; incubation time: overnight (16-24 h).
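Also: static incubation at 37 °C against the wild-type strain, values averaged over two biological replicates.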

SMILES | relative growth
C[C@@H]1CN([C@@H](C)CO)C(=O)c2cccc(NS(=O)(=O)c3cccs3)c2O[C@@H]1CN(C)C(=O)Nc1cccc2ccccc12 | inactive: 0.988
C[C@H]1CN([C@@H](C)CO)C(=O)Cc2cc(NC(=O)Cc3cn(C)c4ccccc34)ccc2O[C@H]1CN(C)Cc1ccc(C(=O)Nc2ccccc2N)cc1 | inactive: 1.03
Cc1noc(C)c1NC(=O)Nc1ccc2c(c1)C(=O)N([C@@H](C)CO)C[C@@H](C)[C@H](CN(C)C(=O)C1CCCCC1)OCCCC[C@@H](C)O2 | inactive: 1
COc1ccc2c3c(n(c2c1)C)[C@@H](CO)N(C[C@]13CCN(CC1)C(=O)CC1CC1)C(=O)CN1CCOCC1 | inactive: 0.934
C[C@@H]1C(=O)O[C@@H]2C[C@@](C)(O)[C@H]3C[C@H]4O[C@@]4(C)[C@@]3(O)C(=O)[C@@H]12 | inactive: 1.02
C[C@@H]1CN([C@H](C)CO)C(=O)Cc2cc(NC(=O)CCN3CCOCC3)ccc2O[C@H]1CN(C)CC1CC1 | inactive: 1.03
O=C(NCCN1CCOCC1)[C@]1(CCS(=O)(=O)c2ccccc2)N=C(c2ccc(OCCCO)cc2)O[C@@H]1c1ccccc1 | inactive: 1
O=C(Cc1ccsc1)N(Cc1ccc2c(c1)OCO2)Cc1cc2cc3c(cc2nc1N1CCOCC1)CCC3 | inactive: 1.03
O=C(C[C@@H]1CC[C@@H]2[C@H](COC[C@H](O)CN2S(=O)(=O)c2ccc(Cl)cc2)O1)NCCN1CCCCC1 | inactive: 0.997
COc1ccc(CN(C)C[C@H]2OCCCC[C@H](C)Oc3ccc(NC(=O)Cc4ccccc4)cc3C(=O)N([C@H](C)CO)C[C@@H]2C)cc1 | inactive: 1.01
N[C@H]1CC[C@H](CCn2cc(C3CC3)nn2)O[C@@H]1CO | inactive: 0.888
C[C@H]1CN([C@@H](C)CO)S(=O)(=O)c2ccc(Br)cc2O[C@H]1CN(C)C(=O)Cc1ccccc1 | inactive: 1
Cc1nsc(-c2ccccc2)n1 | inactive: 0.987
CN(C)C(=O)C[C@H]1C=C[C@@H](NC(=O)C2CCOCC2)[C@H](CO)O1 | inactive: 0.993
COc1ccc(NC(=O)Nc2ccc3c(c2)C(=O)N([C@H](C)CO)C[C@H](C)[C@@H](CN(C)CC2CC2)OCCCC[C@H](C)O3)cc1 | inactive: 0.998
COc1cccc(C#Cc2cnc3c(c2)C(=O)N([C@H](C)CO)C[C@@H](C)[C@H](CN(C)C(=O)C2CCOCC2)O3)c1 | inactive: 1.03
CC(C)C#Cc1cnc2c(c1)C(=O)N([C@@H](C)CO)C[C@H](C)[C@H](CN(C)S(=O)(=O)c1cn(C)cn1)O2 | inactive: 0.987
COc1ccc(-c2cnc3c(c2)C(=O)N([C@H](C)CO)C[C@H](C)[C@H](CN(C)C(=O)Cc2ccncc2)O3)cc1 | inactive: 0.977
CC1(C)C=Cc2c(nc3ccccc3c2NCc2ccccc2)C1 | inactive: 0.489
O=C(C[C@@H]1CC[C@@H]2[C@H](COC[C@@H](O)CN2S(=O)(=O)c2ccccc2F)O1)NCc1ccccc1Cl | inactive: 0.992
O=C(CCCCCCC(=O)N/N=C/[C@H](O)[C@@H](O)[C@H](O[C@@H]1O[C@H](CO)[C@H](O)[C@H](O)[C@H]1O)[C@H](O)CO)NO | inactive: 1

SMILES | relative growth
CCOC(=O)c1c(CN2CCN(CCOCCO)CC2)n(-c2ccccc2)c2cc(Br)c(O)cc12 | inactive: 1.04
C[C@@H]1CN([C@H](C)CO)C(=O)Cc2cc(NS(C)(=O)=O)ccc2O[C@@H]1CN(C)S(=O)(=O)c1ccc(Cl)cc1 | inactive: 0.985
C[C@H]1CCCCO[C@@H](CN(C)C(=O)Nc2ccc(C(F)(F)F)cc2)[C@@H](C)CN([C@@H](C)CO)C(=O)c2cc(NC(=O)Nc3ccc(F)cc3)ccc2O1 | inactive: 1.01
C[C@H]1CN([C@@H](C)CO)C(=O)c2cc(NS(=O)(=O)c3ccc(Cl)cc3)ccc2O[C@H]1CN(C)C(=O)Nc1cccc2ccccc12 | inactive: 0.99
NCCN1CCO[C@H](c2ccccc2)C1 | inactive: 0.998
CCCNC(=O)C[C@@H]1CC[C@H]2[C@@H](COc3ccc(NC(=O)c4ccc5c(c4)OCO5)cc3C(=O)N2C)O1 | inactive: 1.02
C[C@@H]1CN([C@@H](C)CO)C(=O)c2cc(NC(=O)Cc3ccccc3)ccc2O[C@@H]1CN(C)Cc1ccc(-c2ccccc2)cc1 | inactive: 0.837
C[C@H](CO)N1C[C@H](C)[C@H](CN(C)Cc2ccc(-c3ccccc3)cc2)OCc2ccccc2-c2c(n(C)c3ccccc23)C1=O | inactive: 1.03
O=C(C[C@@H]1CC[C@H]2[C@@H](COC[C@@H](O)CN2Cc2ccccc2F)O1)N[C@@H]1CCN(Cc2ccccc2)C1 | inactive: 0.994
COc1ccc2c3c(n(c2c1)C)[C@H](CO)N(C[C@]13CCN(CC1)C(=O)C1CC1)C(=O)CN1CCOCC1 | inactive: 1.01
C[C@H]1CN([C@@H](C)CO)C(=O)CCCn2nncc2CO[C@H]1CN(C)C(=O)Nc1cccc(C(F)(F)F)c1 | inactive: 0.976
CC(C)NC[C@H]1CCC(=O)N1 | inactive: 1.01
C[C@H](CO)N1C[C@H](C)[C@@H](CN(C)CC2CCCCC2)OCCCC[C@H](C)Oc2ccc(NC(=O)CCCCCC(=O)Nc3ccccc3N)cc2C1=O | inactive: 0.845
C[C@@H]1CCCCO[C@@H](CN(C)C(=O)Nc2cccc3ccccc23)[C@@H](C)CN([C@@H](C)CO)C(=O)c2cc(NC(=O)Cc3ccccc3)ccc2O1 | inactive: 0.997
C[C@@H]1CN([C@@H](C)CO)C(=O)c2cc(NS(=O)(=O)c3ccc(Cl)cc3)ccc2O[C@@H](C)CCCCO[C@@H]1CN(C)C(=O)Nc1cccc2ccccc12 | inactive: 1.03
Cc1noc(C)c1NC(=O)Nc1ccc2c(c1)C(=O)N([C@@H](C)CO)C[C@@H](C)[C@H](CN(C)Cc1ccc(C(F)(F)F)cc1)OCCCC[C@H](C)O2 | inactive: 0.992
C[C@@H]1CN([C@H](C)CO)C(=O)c2cc(C#CC3CCCC3)cnc2O[C@H]1CN(C)S(=O)(=O)c1cccc(F)c1 | inactive: 1.02
C[C@H]1CN([C@@H](C)CO)C(=O)Cc2cc(NC(=O)Nc3cccc4ccccc34)ccc2O[C@H]1CN(C)Cc1ccc2c(c1)OCO2 | inactive: 0.989
CSc1cnc2c(=O)[nH]c(=O)n(C)c2n1 | inactive: 0.971
COC(=O)[C@H]1CCCNC1=O | inactive: 1.05
C[C@H]1CN([C@@H](C)CO)S(=O)(=O)c2ccc(-c3cccnc3)cc2O[C@@H]1CN(C)C(=O)c1cccc(F)c1 | inactive: 0.992

SMILES | relative growth
COc1ccc(cc1)S(=O)(=O)N1C[C@]2(C1)CN([C@H](CO)c1c2c2ccc(cc2n1C)OC)C(=O)c1cccnc1 | inactive: 0.984
C=C[C@@]1(C)CC(=O)[C@]2(O)[C@@]3(C)[C@@H](O)CCC(C)(C)[C@@H]3[C@H](O)[C@H](OC(C)=O)[C@@]2(C)O1 | inactive: 0.969
Cn1c(=O)n(C)c2cc(CO)ccc21 | inactive: 0.989
NC(=O)c1c(Cl)ncc2c1NCC2 | inactive: 1.01
C[C@H]1CCCCO[C@H](CN(C)Cc2ccc3c(c2)OCO3)[C@@H](C)CN([C@@H](C)CO)C(=O)c2cc(NC(=O)C3CCCCC3)ccc2O1 | inactive: 0.983
Cc1ccc(S(=O)(=O)N(C)C[C@H]2Oc3ccc(NC(=O)c4ccncc4)cc3C(=O)N([C@@H](C)CO)C[C@@H]2C)cc1 | inactive: 1.03
C[C@@H]1CN([C@H](C)CO)C(=O)c2cc(NC(=O)C3CCCCC3)ccc2O[C@@H](C)CCCCO[C@@H]1CN(C)C(=O)Cc1ccccc1 | inactive: 0.994
C[C@@H]1CN([C@H](C)CO)C(=O)c2cc(NC(=O)c3ccncc3)ccc2O[C@@H](C)CCCCO[C@H]1CN(C)Cc1ccccc1 | inactive: 0.996
C[C@H](CO)N1C[C@H](C)[C@@H](CN(C)S(C)(=O)=O)OCCCC[C@H](C)Oc2ccc(NS(=O)(=O)c3cn(C)cn3)cc2C1=O | inactive: 0.985
C[C@H](CO)N1C[C@H](C)[C@@H](CN(C)Cc2ccc(-c3ccccc3)cc2)Oc2c(NC(=O)Nc3ccc4c(c3)OCO4)cccc2C1=O | inactive: 0.947
C=CC[C@@H](CC(=O)N[C@@H](CO)Cc1ccccc1)C(=O)N[C@H](COC(=O)[C@@H](CC=C)Cc1ccc(F)cc1)Cc1c[nH]c2ccccc12 | inactive: 1.05
C[C@@H]1CN([C@@H](C)CO)C(=O)c2cc(NC(=O)Cc3cn(C)c4ccccc34)ccc2O[C@@H]1CN(C)Cc1ccc(-c2ccccc2)cc1 | inactive: 1.03
C[C@@H]1CN([C@H](C)CO)C(=O)c2c(c3ccccc3n2C)-c2ccccc2CO[C@@H]1CN(C)Cc1cccc(C(F)(F)F)c1 | inactive: 1.04
O=C(C[C@H]1CC[C@H]2[C@@H](COC[C@@H](O)CN2C(=O)c2cccnc2)O1)NCC1CC1 | inactive: 0.988
CO[C@H]1O[C@H](CO)[C@@H](OC(=O)c2ccc(Br)cc2)[C@@H]2OC(=O)[C@@H](Cc3ccccc3)C/C=C/C[C@H](Cc3ccccc3)C(=O)O[C@@H]12 | inactive: 0.988
Cc1ccc(S(=O)(=O)N(C)C[C@@H]2Oc3ccc(NC(=O)CCN4CCOCC4)cc3CC(=O)N([C@H](C)CO)C[C@@H]2C)cc1 | inactive: 1.01
O=NN(CCCl)C(=O)NC1CCCCC1 | inactive: 1.07
COc1ccc(S(=O)(=O)N(C)C[C@H]2OCCCC[C@@H](C)Oc3ccc(NC(=O)Nc4ccc5c(c4)OCO5)cc3C(=O)N([C@H](C)CO)C[C@@H]2C)cc1 | inactive: 1
C[C@@H]1CN([C@H](C)CO)C(=O)c2cc(NC(=O)CCN3CCOCC3)ccc2O[C@@H]1CN(C)Cc1ccc2c(c1)OCO2 | inactive: 1.01
